# According to the supplement of paper PMC8728848:
# This is one part of the list.
# B1: BC2L-D C-terminal domain (Burkholderia cenocepacia), Q39MQ9_BURS3 (protein)
# chain: LVIVDAVTLLSAYPEASRDPAAPTVIDGRHLYVVSPGDAAQLGHNDSRLFTGLSPGDQLHLRETALALRAEVSVLFIRFALKDAGIVAPIELEVRDAATAVPDADDLLHPSCRPLKDHYWRSDVLAAGATTCTADFAVCDRDGTVSGYFRWETSIEIAGSQPDTKQPGFKPSSDRNGNFSLPPNTAFKAIFYANAADRQDLKLFIDDAPEPAATFVGNSEDGVRLFTLNSKGGKIRIEASANGRQSATDARLAPLSAGDTVWLGWLGAEDGADADYNDGIVILQWPIT
# Tests used:
# Assay in all cases: glycan array binding signal (z-score within array); higher = stronger binding
# Settings in all cases: glycan notation: IUPAC condensed, linker removed
# [1] = target: GalNAc(b1-3)Gal(a1-4)Gal(b1-4)GlcNAc(b1-3)Gal(b1-4)Glc
# Procedure, shortened: (§1)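 The binding signal is a Z-score computed within each array and averaged over linkers. Arrays of the same protein sequence at different concentrations or buffers were also averaged together. Data originate from 3228 arrays in the Consortium for Functional Glycomics database, kept only where the protein sequence was available.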
# [2] = target: GalNAc(b1-3)Gal(a1-6)Gal(b1-4)Glc
# Procedure, shortened: as §1
# GalNAc(b1-3)GalNAc = target: GalNAc(b1-3)GalNAc
# Procedure, shortened: as §1
# GalNAc(b1-4)Gal(b1-4)Glc = target: GalNAc(b1-4)Gal(b1-4)Glc
# Procedure, shortened: as §1
# GalNAc(b1-4)GlcNAc = target: GalNAc(b1-4)GlcNAc
# Procedure, shortened: as §1
# [3] = target: GalNAc(b1-4)GlcNAc(b1-2)Man(a1-3)[GalNAc(b1-4)GlcNAc(b1-2)Man(a1-6)]Man(b1-4)GlcNAc(b1-4)GlcNAc
# Procedure, shortened: as §1
# GalNAc(b1-6)GalNAc = target: GalNAc(b1-6)GalNAc
# Procedure, shortened: as §1
# Glc(a1-4)Glc = target: Glc(a1-4)Glc
# Procedure, shortened: as §1
# [4] = target: Glc(a1-4)Glc(a1-4)Glc(a1-4)Glc
# Procedure, shortened: as §1
# Glc(a1-6)Glc(a1-6)Glc = target: Glc(a1-6)Glc(a1-6)Glc
# Procedure, shortened: as §1
# [5] = target: Glc(a1-6)Glc(a1-6)Glc(a1-6)Glc
# Procedure, shortened: as §1
# Glc(b1-4)Glc = target: Glc(b1-4)Glc
# Procedure, shortened: as §1
# Glc(b1-6)Glc = target: Glc(b1-6)Glc
# Procedure, shortened: as §1
# GlcA(b1-3)Gal = target: GlcA(b1-3)Gal
# Procedure, shortened: as §1
# GlcA(b1-3)GlcNAc = target: GlcA(b1-3)GlcNAc
# Procedure, shortened: as §1
# GlcA(b1-6)Gal = target: GlcA(b1-6)Gal
# Procedure, shortened: as §1
# [6] = target: GlcNAc(a1-3)Gal(b1-4)GlcNAc
# Procedure, shortened: as §1
# [7] = target: GlcNAc(a1-4)Gal(b1-3)GlcNAc
# Procedure, shortened: as §1
# [8] = target: GlcNAc(a1-4)Gal(b1-4)GalNAc
# Procedure, shortened: as §1
# [9] = target: GlcNAc(a1-4)Gal(b1-4)GlcNAc
# Procedure, shortened: as §1
# [10] = target: GlcNAc(a1-4)Gal(b1-4)GlcNAc(b1-3)Gal(b1-4)Glc
# Procedure, shortened: as §1
# [11] = target: GlcNAc(a1-4)Gal(b1-4)GlcNAc(b1-3)Gal(b1-4)GlcNAc
# Procedure, shortened: as §1
# [12] = target: GlcNAc(a1-4)Gal(b1-4)GlcNAc(b1-3)Gal(b1-4)GlcNAc(b1-3)Gal(b1-4)GlcNAc
# Procedure, shortened: as §1
# [13] = target: GlcNAc(a1-4)Gal(b1-4)GlcNAc(b1-3)Gal(b1-4)[Fuc(a1-3)]GlcNAc(b1-3)Gal(b1-4)[Fuc(a1-3)]GlcNAc
# Procedure, shortened: as §1
# [14] = target: GlcNAc(a1-6)Gal(b1-4)GlcNAc
# Procedure, shortened: as §1
# [15] = target: GlcNAc(b1-2)Gal(b1-3)GalNAc
# Procedure, shortened: as §1
# [16] = target: GlcNAc(b1-2)Man(a1-3)[GlcNAc(b1-2)Man(a1-6)]Man(b1-4)GlcNAc(b1-4)GlcNAc
# Procedure, shortened: as §1
# [17] = target: GlcNAc(b1-2)Man(a1-3)[GlcNAc(b1-2)Man(a1-6)]Man(b1-4)GlcNAc(b1-4)[Fuc(a1-6)]GlcNAc
# Procedure, shortened: as §1
# [18] = target: GlcNAc(b1-2)Man(a1-3)[GlcNAc(b1-4)][GlcNAc(b1-2)Man(a1-6)]Man(b1-4)GlcNAc(b1-4)GlcNAc
# Procedure, shortened: as §1
# [19] = target: GlcNAc(b1-2)[GlcNAc(b1-4)]Man(a1-3)[GlcNAc(b1-2)Man(a1-6)]Man(b1-4)GlcNAc(b1-4)GlcNAc
# Procedure, shortened: as §1
# [20] = target: GlcNAc(b1-2)[GlcNAc(b1-4)]Man(a1-3)[GlcNAc(b1-4)][GlcNAc(b1-2)Man(a1-6)]Man(b1-4)GlcNAc(b1-4)GlcNAc
# Procedure, shortened: as §1
# [21] = target: GlcNAc(b1-2)[GlcNAc(b1-4)]Man(a1-3)[GlcNAc(b1-4)][GlcNAc(b1-2)[GlcNAc(b1-6)]Man(a1-6)]Man(b1-4)GlcNAc(b1-4)GlcNAc
# Procedure, shortened: as §1
# [22] = target: GlcNAc(b1-2)[GlcNAc(b1-6)]Man(a1-6)[GlcNAc(b1-2)Man(a1-3)]Man(b1-4)GlcNAc(b1-4)GlcNAc
# Procedure, shortened: as §1
# [23] = target: GlcNAc(b1-2)[GlcNAc(b1-6)]Man(a1-6)[GlcNAc(b1-2)Man(a1-3)][GlcNAc(b1-4)]Man(b1-4)GlcNAc(b1-4)GlcNAc
# Procedure, shortened: as §1
# GlcNAc(b1-3)Gal = target: GlcNAc(b1-3)Gal
# Procedure, shortened: as §1
# [24] = target: GlcNAc(b1-3)Gal(b1-3)GalNAc
# Procedure, shortened: as §1
# GlcNAc(b1-3)Gal(b1-4)Glc = target: GlcNAc(b1-3)Gal(b1-4)Glc
# Procedure, shortened: as §1
binder,measurement,setting,value
B1,glycan array binding signal (z-score),[1],-0.246
same,glycan array binding signal (z-score),[2],-0.169
same,glycan array binding signal (z-score),GalNAc(b1-3)GalNAc,-0.246
same,glycan array binding signal (z-score),GalNAc(b1-4)Gal(b1-4)Glc,-0.16
same,glycan array binding signal (z-score),GalNAc(b1-4)GlcNAc,-0.245
same,glycan array binding signal (z-score),[3],-0.228
same,glycan array binding signal (z-score),GalNAc(b1-6)GalNAc,-0.161
same,glycan array binding signal (z-score),Glc(a1-4)Glc,-0.242
same,glycan array binding signal (z-score),[4],-0.163
same,glycan array binding signal (z-score),Glc(a1-6)Glc(a1-6)Glc,-0.245
same,glycan array binding signal (z-score),[5],-0.167
same,glycan array binding signal (z-score),Glc(b1-4)Glc,-0.24
same,glycan array binding signal (z-score),Glc(b1-6)Glc,-0.237
same,glycan array binding signal (z-score),GlcA(b1-3)Gal,-0.244
same,glycan array binding signal (z-score),GlcA(b1-3)GlcNAc,-0.246
same,glycan array binding signal (z-score),GlcA(b1-6)Gal,-0.239
same,glycan array binding signal (z-score),[6],-0.24
same,glycan array binding signal (z-score),[7],-0.237
same,glycan array binding signal (z-score),[8],-0.245
same,glycan array binding signal (z-score),[9],-0.241
same,glycan array binding signal (z-score),[10],-0.244
same,glycan array binding signal (z-score),[11],-0.217
same,glycan array binding signal (z-score),[12],-0.235
same,glycan array binding signal (z-score),[13],-0.107
same,glycan array binding signal (z-score),[14],-0.242
same,glycan array binding signal (z-score),[15],-0.241
same,glycan array binding signal (z-score),[16],-0.239
same,glycan array binding signal (z-score),[17],-0.189
same,glycan array binding signal (z-score),[18],-0.161
same,glycan array binding signal (z-score),[19],-0.164
same,glycan array binding signal (z-score),[20],-0.161
same,glycan array binding signal (z-score),[21],-0.162
same,glycan array binding signal (z-score),[22],-0.162
same,glycan array binding signal (z-score),[23],-0.158
same,glycan array binding signal (z-score),GlcNAc(b1-3)Gal,-0.243
same,glycan array binding signal (z-score),[24],-0.239
same,glycan array binding signal (z-score),GlcNAc(b1-3)Gal(b1-4)Glc,-0.246
